Measurements: the supplement of paper PMC11417369
The other results are listed elsewhere or left out.

What follows are sequences tested on PF3D7_0420300 AP2 domain 1 (GST-tagged) (assay: gcPBM binding intensity (ln(normalized median fluorescence intensity)); higher = stronger DNA binding).
Procedure, shortened: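 For binding intensity, the highest Masliner-normalised natural-log median intensity across replicate spots of either probe orientation was taken. Protein bound to the array was stained with Alexa488 anti-GST antibody and scanned at 488 nm. The protein, GST-tagged P. falciparum DNA-binding domains from E. coli at about 25 μg on average, had been applied for 1 h to an Agilent 4 × 180k array of primer-extended double-stranded 36-bp intergenic genomic probes and negative controls.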

Sequence | gcPBM binding intensity (ln)
CTTTGTGGTATAGATACACACTATATTAATATGAAC [CACACA_site7081] | 9.31
AAATAAAAAGGGTGCACACAAAAATATATATATATA [CACACA_site1728] | 9.55
ATGTTTGATGCTACACGTACACACCTTGCAAATATT [XGTACX_site1644] | 9.62
TATATTATTCATTAAGCACACATTATTTTTATAATA [CACACA_site6056] | 9.24
TTTTTTTTTTTTTTTACACACACAAAATATTATATG [CACACA_site2471] | 9.43
TATTATTTACCTTGCTAGTTCGTTCCAAATTTTATG [XGTACX_negctrl_site197] | 9.61
AAAACTATAATAAAAGGTACACATTTATTTTTTTCT [XGTACX_site730] | 9.29
AAAACAAATTTTAATGAGAATATGAAAAAAAAATAT [XGTACX_negctrl_site268] | 9.23
TATTCTAATATATGCATACACACAAATGTGAATATA [CACACA_site2143] | 9.33
CACATTATGTATCATACACACAAATAAATATAGAAT [CACACA_site609] | 9.79
TTTATATGTATTAAGTGTACACATATAATGTGTTTT [XGTACX_site4890] | 9.34
AAAAAAAAAAAAAGAACATGCGACTTTAAGAACTGG [TGCATGCA_site792] | 9.37
TAAAAAATTATATATTGTACGAATGCATAAAAAAAA [XGTACX_site4606] | 9.25
TATGAAAATAAAATATGTACATATTTTAAATGTTAT [XGTACX_site7352] | 9.18
CAAATGTGTTCTTCAGGTACAGATACACATTTATGA [XGTACX_site2664] | 9.12
CACCATGTTAACAAAGCATGCATCTCTATAGTTTTA [TGCATGCA_site97] | 9.26
TTCAATGCTAATTTATGTACATATGTATATAAAATA [XGTACX_site8335] | 8.9
AAAATATATATTTGTTGTACAATATTAATTATTAAA [XGTACX_site1612] | 8.94
CCCAAAAAAAATTTATGTACTTATTAAATATATATA [XGTACX_site6455] | 9.05

Sequence | gcPBM binding intensity (ln)
TTTATATAAATTTAAGTGCAAAATGAACAAGTGAAA | 9.35
TGCAAAGGTGAAAGAACACACAAAAAAAAAAAAAAA [CACACA_site4024] | 8.93
AATTTTAGATTTAGCACACATTTTTTTTTTTTTTTT [CACACA_site6105] | 9.17
TTTTTAATCTCATATGTATAATATATTTTTATTAAA [XGTACX_negctrl_site236] | 8.96
TTCAAAGGGAAATTAACACACACATATATATATATA [CACACA_site8777] | 9.53
GTAATTATTAATAAAACATGCGTATAAAATTTTCTC [TGCATGCA_site50] | 9.18
TCTTTTTTTAATAAAACATGCAATATTATATATGTA [TGCATGCA_site236] | 8.97
AAAAAAATATATATATATATATATATATATTTATAT [XGTACX_negctrl_site86] | 8.83
AGTGACACCAAAGGGGTGCAATGAAATTAAAAATAT | 9.01
TTTATTCATTTCTAAAAATATTAAAATAGAATGAAT [CACACA_negctrl_site325] | 8.88
AAACAAAAAATATATACACACTAAACATAAAAAAAA [CACACA_site4185] | 9.83
TAAAAAAAAATAAATGGTACACAATTAAATGTTTAT [XGTACX_site5255] | 9.34
ATATACTATATATAATGTACATATATATTATTATGC [XGTACX_site2957] | 9.18
ATAAGAAAATCAAAAAGTACTTTTTACAAAGATAAA [XGTACX_site824] | 9.13
TAGTTTTTTATATATTGTACAAATAATATATTATAT [XGTACX_site2564] | 9.19
ATTTTATGATATATTTGTACTTAACATTTGGATATA [XGTACX_site5888] | 9.22
ACATATTCATATGGAAGTACGATAATGTAGTCATAT [XGTACX_site7080] | 9.37
ATATATACATACAAATTAATTACGAGGAATATATTA [XGTACX_negctrl_site417] | 9.36
TATATATATTTAAAGGTGCAGATGCCAGTGTATATT | 9.38

Sequence | gcPBM binding intensity (ln)
AATGAACTCACGAGCACACACACACCGATATATATA [CACACA_site4710] | 10
ATAAATATATTTAAATGTACATAATATATATATATA [XGTACX_site5137] | 9.05
GGAACTTATTTTTATACACACATATGTGCATATTAT [CACACA_site629] | 9.68
GTAAAAAAATTAAAAATTAACAAGGAATTAAGTATA [CACACA_negctrl_site1688] | 9.26
TATACATATATATACACACACACATATATATATATA [CACACA_site1299] | 9.95
ATCATAAATATAGCAACACACGGATTACATAAAATA [CACACA_site2796] | 9.73
TTGTAATAAATAAAAGTGCAGATATGGTTCCACTAA [GTGCAC_site9942] | 9.17
TTAAAAAAATAATTAACACACACATGTATATCTATA [CACACA_site9026] | 9.6
TTTGCGTAGAAATGTGTGCACTGATATTTATAATAA [GTGCAC_site9526] | 9.29
TGAACTCATAGGAAAACACACATATGGGTAATATAT [CACACA_site187] | 9.6
ATTTTCCTTTTACCACGTACACATAAAAACGTTATA [XGTACX_site3595] | 9.4
AAAAAAAATCAAATGGGTACTTATTCTTAATAATAT [XGTACX_site3792] | 9.12
TATGAAATTAGAATTACACACAGGAAAATAAAATGC [CACACA_site6822] | 9.96
TGAATAAATATATATACACACATATCTGTATTTATT [CACACA_site4991] | 9.55
TATATATATACCAACACACATACATATATATATATA [CACACA_site1795] | 9.46
AAATTTGGCAGACACACACACACACGCACACGCACA [CACACA_site6423] | 10.3
CCCTCCCCATGTTTAGTGCAAAAATATTTGAAATTG [GTGCAC_site9873] | 10.2
AGGTATGTCTATAAATGTACATATGAGTTCAATTTC [XGTACX_site2244] | 9.11
CACAGTGATATAAAAACACACATGAATTCTAATTTC [CACACA_site6884] | 9.37
